From publication PMC9911399, “Two distinct binding modes provide the RNA-binding protein RbFox with extraordinary sequence specificity”
Substitutions are numbered along the chain they refer to; changes in the protein carry UniProt numbers. This is one part of the list.

T1: RBFOX1 RRM RbFoxmut (Fox-RRM*) (Homo sapiens, UniProt Q9NWB1 109-208, R118D;E147R;N151S;E152T)
T1 sequence: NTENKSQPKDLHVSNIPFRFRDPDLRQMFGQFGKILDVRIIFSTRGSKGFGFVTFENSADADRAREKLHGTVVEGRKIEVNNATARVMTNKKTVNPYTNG

B1: CCUCGUU (DNA:RNA)
RNA: GGGAGACCGGAAUUCAGAUUGUCCCCUCGUUUUAAAUCCCGUCGUAGCCACCA
DNA 1: CAATCTGAATTCCGGTCTCCC
DNA 2: TGGTGGCTACGACGGGATT
B2: AAUUACG (DNA:RNA)
RNA: B1 RNA with C25A, C26A, C28U, G29A, U30C, U31G
DNA 1: CAATCTGAATTCCGGTCTCCC
DNA 2: TGGTGGCTACGACGGGATT
B3: GUCUUUU (DNA:RNA)
RNA: B1 RNA with C25G, C26U, U27C, C28U, G29U
DNA 1: CAATCTGAATTCCGGTCTCCC
DNA 2: TGGTGGCTACGACGGGATT
B4: UUCCAAC (DNA:RNA)
RNA: B1 RNA with C25U, C26U, U27C, G29A, U30A, U31C
DNA 1: CAATCTGAATTCCGGTCTCCC
DNA 2: TGGTGGCTACGACGGGATT
B5: GUAACUU (DNA:RNA)
RNA: B1 RNA with C25G, C26U, U27A, C28A, G29C
DNA 1: CAATCTGAATTCCGGTCTCCC
DNA 2: TGGTGGCTACGACGGGATT
B6: GCAUAUA (DNA:RNA)
RNA: B1 RNA with C25G, U27A, C28U, G29A, U31A
DNA 1: CAATCTGAATTCCGGTCTCCC
DNA 2: TGGTGGCTACGACGGGATT
B7: GAGCGCU (DNA:RNA)
RNA: B1 RNA with C25G, C26A, U27G, U30C
DNA 1: CAATCTGAATTCCGGTCTCCC
DNA 2: TGGTGGCTACGACGGGATT
B8: UCGUGUC (DNA:RNA)
RNA: B1 RNA with C25U, U27G, C28U, U31C
DNA 1: CAATCTGAATTCCGGTCTCCC
DNA 2: TGGTGGCTACGACGGGATT
B9: GAUAGCC (DNA:RNA)
RNA: B1 RNA with C25G, C26A, C28A, U30C, U31C
DNA 1: CAATCTGAATTCCGGTCTCCC
DNA 2: TGGTGGCTACGACGGGATT
B10: AAAGUCU (DNA:RNA)
RNA: B1 RNA with C25A, C26A, U27A, C28G, G29U, U30C
DNA 1: CAATCTGAATTCCGGTCTCCC
DNA 2: TGGTGGCTACGACGGGATT
B11: AACCAAA (DNA:RNA)
RNA: B1 RNA with C25A, C26A, U27C, G29A, U30A, U31A
DNA 1: CAATCTGAATTCCGGTCTCCC
DNA 2: TGGTGGCTACGACGGGATT
B12: CUUGGUG (DNA:RNA)
RNA: B1 RNA with C26U, C28G, U31G
DNA 1: CAATCTGAATTCCGGTCTCCC
DNA 2: TGGTGGCTACGACGGGATT
B13: UACACGC (DNA:RNA)
RNA: GGGAGACCGGAAUUCAGAUUGUCCUACACGCUUAAAUCCCGUCGUAGCCACCA
DNA 1: CAATCTGAATTCCGGTCTCCC
DNA 2: TGGTGGCTACGACGGGATT
B14: UCCAGAG (DNA:RNA)
RNA: B13 RNA with A26C, C29G, G30A, C31G
DNA 1: CAATCTGAATTCCGGTCTCCC
DNA 2: TGGTGGCTACGACGGGATT
B15: CCCCCUU (DNA:RNA)
RNA: B1 RNA with U27C, G29C
DNA 1: CAATCTGAATTCCGGTCTCCC
DNA 2: TGGTGGCTACGACGGGATT
B16: GGAGGCC (DNA:RNA)
RNA: B1 RNA with C25G, C26G, U27A, C28G, U30C, U31C
DNA 1: CAATCTGAATTCCGGTCTCCC
DNA 2: TGGTGGCTACGACGGGATT
B17: GUGCGCC (DNA:RNA)
RNA: B1 RNA with C25G, C26U, U27G, U30C, U31C
DNA 1: CAATCTGAATTCCGGTCTCCC
DNA 2: TGGTGGCTACGACGGGATT
B18: UGAGAUU (DNA:RNA)
RNA: B1 RNA with C25U, C26G, U27A, C28G, G29A
DNA 1: CAATCTGAATTCCGGTCTCCC
DNA 2: TGGTGGCTACGACGGGATT
B19: ACGGUGU (DNA:RNA)
RNA: B1 RNA with C25A, U27G, C28G, G29U, U30G
DNA 1: CAATCTGAATTCCGGTCTCCC
DNA 2: TGGTGGCTACGACGGGATT
B20: CACCAAU (DNA:RNA)
RNA: B1 RNA with C26A, U27C, G29A, U30A
DNA 1: CAATCTGAATTCCGGTCTCCC
DNA 2: TGGTGGCTACGACGGGATT
B21: AUCGCCA (DNA:RNA)
RNA: B13 RNA with U25A, A26U, A28G, G30C, C31A
DNA 1: CAATCTGAATTCCGGTCTCCC
DNA 2: TGGTGGCTACGACGGGATT
B22: GAUGGGU (DNA:RNA)
RNA: B1 RNA with C25G, C26A, C28G, U30G
DNA 1: CAATCTGAATTCCGGTCTCCC
DNA 2: TGGTGGCTACGACGGGATT
B23: UACUUUC (DNA:RNA)
RNA: B13 RNA with A28U, C29U, G30U
DNA 1: CAATCTGAATTCCGGTCTCCC
DNA 2: TGGTGGCTACGACGGGATT
B24: UUGUGAC (DNA:RNA)
RNA: B13 RNA with A26U, C27G, A28U, C29G, G30A
DNA 1: CAATCTGAATTCCGGTCTCCC
DNA 2: TGGTGGCTACGACGGGATT
B25: CUCCUGU (DNA:RNA)
RNA: B1 RNA with C26U, U27C, G29U, U30G
DNA 1: CAATCTGAATTCCGGTCTCCC
DNA 2: TGGTGGCTACGACGGGATT
B26: CACUUUU (DNA:RNA)
RNA: B1 RNA with C26A, U27C, C28U, G29U
DNA 1: CAATCTGAATTCCGGTCTCCC
DNA 2: TGGTGGCTACGACGGGATT
B27: UCCUAUG (DNA:RNA)
RNA: B1 RNA with C25U, U27C, C28U, G29A, U31G
DNA 1: CAATCTGAATTCCGGTCTCCC
DNA 2: TGGTGGCTACGACGGGATT
B28: AUUGUGC (DNA:RNA)
RNA: B13 RNA with U25A, A26U, C27U, A28G, C29U
DNA 1: CAATCTGAATTCCGGTCTCCC
DNA 2: TGGTGGCTACGACGGGATT
B29: CAUGUUA (DNA:RNA)
RNA: B1 RNA with C26A, C28G, G29U, U31A
DNA 1: CAATCTGAATTCCGGTCTCCC
DNA 2: TGGTGGCTACGACGGGATT
B30: UCCCGAA (DNA:RNA)
RNA: B1 RNA with C25U, U27C, U30A, U31A
DNA 1: CAATCTGAATTCCGGTCTCCC
DNA 2: TGGTGGCTACGACGGGATT
B31: UCGUCAC (DNA:RNA)
RNA: B13 RNA with A26C, C27G, A28U, G30A
DNA 1: CAATCTGAATTCCGGTCTCCC
DNA 2: TGGTGGCTACGACGGGATT

These binders were tested against T1, RBFOX1 RRM RbFoxmut (Fox-RRM*) (assay: EMSA; HiTS-Eq, 1 nM pool, 10 min; buffer printed only for the single-RNA assays: 10 mM Tris pH 7.5, 150 mM NaCl, 3.4 mM EDTA, 0.001% NP-40, 30 C). Settings: tags: His6 N-terminal (pET28a); label: 5' 32P.
Procedure, shortened: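 Purified wild-type or mutant RbFox RRM at increasing concentrations was equilibrated with 1 nM of 5′-radiolabelled RNA carrying 7 randomized nucleotides for 10 min in 50 µL. Unbound RNA was separated by 8% native PAGE and sequenced. Relative association constants came from read-count changes of each RNA species compared with the control reaction, normalised to the cognate motif.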
With B1 the binding signal was 0.0946 KA relative to UGCAUGU. With B2 the binding signal was 0.133 KA relative to UGCAUGU. B3 was tested, and the binding signal was 0.0867 KA relative to UGCAUGU. For B4, the binding signal was 0.0762 KA relative to UGCAUGU. With B5 the binding signal was 0.104 KA relative to UGCAUGU. B6 was tested, and the binding signal was 0.169 KA relative to UGCAUGU. For B7, the binding signal was 0.0709 KA relative to UGCAUGU. B8 was tested, and the binding signal was 0.359 KA relative to UGCAUGU. B9 was tested, and the binding signal was 0.118 KA relative to UGCAUGU. For B10, the binding signal was 0.0626 KA relative to UGCAUGU. With B11 the binding signal was 0.0907 KA relative to UGCAUGU. B12 was tested, and the binding signal was 0.131 KA relative to UGCAUGU. In the case of B13, the binding signal is reported as 0.058 KA relative to UGCAUGU. In the case of B14, the binding signal is reported as 0.107 KA relative to UGCAUGU. With B15 the binding signal was 0.0626 KA relative to UGCAUGU. B16 was tested, and the binding signal was 0.104 KA relative to UGCAUGU. B17 was tested, and the binding signal was 0.153 KA relative to UGCAUGU. In the case of B18, the binding signal is reported as 0.104 KA relative to UGCAUGU. In the case of B19, the binding signal is reported as 0.14 KA relative to UGCAUGU. B20 was tested, and the binding signal was 0.0482 KA relative to UGCAUGU. In the case of B21, the binding signal is reported as 0.124 KA relative to UGCAUGU. B22 was tested, and the binding signal was 0.077 KA relative to UGCAUGU. With B23 the binding signal was 0.0804 KA relative to UGCAUGU. With B24 the binding signal was 0.052 KA relative to UGCAUGU. For B25, the binding signal was 0.0704 KA relative to UGCAUGU. With B26 the binding signal was 0.0858 KA relative to UGCAUGU. With B27 the binding signal was 0.141 KA relative to UGCAUGU. In the case of B28, the binding signal is reported as 0.191 KA relative to UGCAUGU. With B29 the binding signal was 0.109 KA relative to UGCAUGU. With B30 the binding signal was 0.066 KA relative to UGCAUGU. With B31 the binding signal was 0.106 KA relative to UGCAUGU.
